{"source": "PubChem BioAssay AID1466", "about": "(National Center for Advancing Translational Sciences (NCATS), 2008)", "note": "In all, about 200,000 compounds went through this assay and about 10 (0.005%) were called active. The shares of active, inactive and inconclusive entries below differ from those in the screen. Calls come from the whole dose curve; as a rule, active = well fitted inhibition curve with a large enough effect; inconclusive = small, poorly fitted or top-dose-only effect, or effect the other way, or another doubt; inactive = no such curve, though single readings can be large or run the other way. Potencies of inconclusive entries are left out as doubtful fits. Potency is the fitted concentration of half-maximal effect; tags give direction and shape of the fitted curve.", "data": [{"target": "Lysosomal alpha-glucosidase (Homo sapiens) (UniProt P10253)", "test": "qHTS Assay for Inhibitors of Human alpha-Glucosidase as a Potential Chaperone Treatment of Pompe Disease;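 for activity change, negative = inhibition: plate controls were uninhibited enzyme wells for no effect and no-enzyme background for full effect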", "settings": "purified human GAA, 4-MU-alpha-glucoside fluorescence; activity change, negative = inhibition: at 76.9 µM (top of the series) unless noted", "method_in_brief": "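Human enzyme at 4 nM with 400 uM 4-methylumbelliferyl-alpha-D-pyranoside, citrate/phosphate buffer pH 5.0, 0.005% Tween-20, 20 min at room temperature. Compounds up to 77 uM. 4-MU fluorescence (Ex 365/Em 440) read after NaOH/glycine stop; AC50 from Hill fit.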", "values": [{"smiles": "CCCCOc1ccc2c(C)cc(=O)oc2c1OCCCC", "activity change, negative = inhibition": "inconclusive: -15.5% [inhibitor]"}, {"smiles": "COc1ccccc1/C=C/C(=O)OC(C)CN1CCOCC1", "note": "(configuration not stated)", "Potency": "inactive"}, {"smiles": "Cc1ccc(N2C(=O)N(c3ccc(C)cc3)C3CS(=O)(=O)CC32)cc1", "note": "(configuration not stated)", "Potency": "inconclusive [inhibitor, single point]"}, {"smiles": "CCOC(=O)Cn1c(=O)oc2cc(S(=O)(=O)Nc3ccc(F)cc3)ccc21", "Potency": "inconclusive [inhibitor, single point]"}, {"smiles": "CCOC(=O)C1CCCN(C(=O)CSCc2ccccc2)C1", "note": "(configuration not stated)", "activity change, negative = inhibition": "inconclusive: 15.1% [activator]"}, {"smiles": "COC(=O)[C@@]1(Cc2ccc(F)cc2)[C@H]2c3cc(C(=O)N(C)C)n(CCc4ccccn4)c3C[C@H]2CN1C(=O)c1ccccc1", "Potency": "inconclusive [inhibitor, single point]"}, {"smiles": "COc1ccc(CCNc2oc(COc3ccccc3Cl)nc2C#N)cc1OC", "Potency": "inconclusive [inhibitor, single point]"}, {"smiles": "COc1cc(C(=O)Nc2cc(-c3cn4cccnc4n3)ccc2C)cc(OC)c1OC", "Potency": "inconclusive [activator, partial curve]"}, {"smiles": "NNC(=S)Nc1cc(S(=O)(=O)N2CCOCC2)ccc1N1CCOCC1", "activity change, negative = inhibition": "inconclusive: -17.9% [inhibitor]"}, {"smiles": "O=C(Cc1ccccc1)Nc1ccc(Br)c(Cl)c1", "Potency": "inconclusive [activator, single point]"}, {"smiles": "COc1cc(C(=O)Nc2cccc3ncccc23)cc(OC)c1OC", "activity change, negative = inhibition": "inconclusive: -15% [inhibitor]"}, {"smiles": "CC(C)=C1C2C=CC1C(C(=O)Nc1cccc(C)c1)C2C(=O)O", "note": "(configuration not stated)", "activity change, negative = inhibition": "inconclusive: -15.8% [inhibitor]"}, {"smiles": "COc1cc(OC)cc(C(=O)N[C@H](C(=O)Nc2ccc3c(c2)OCO3)C(C)C)c1", "Potency": "inconclusive [inhibitor, partial curve]"}, {"smiles": "COc1cc(/C=C2\\SC(=Nc3ccccc3)N(CCc3c[nH]c4ccccc34)C2=O)ccc1OC(C)C(=O)O", "note": "(configuration not stated)", "Potency": "inconclusive [inhibitor, full curve]"}, {"smiles": "CCOC(=O)C1=C(C)N=C(/N=C/N(C)C)SC1c1ccccc1", "note": "(configuration not stated)", "Potency": "inconclusive [inhibitor, partial curve, poor fit]"}, {"smiles": "CC(=O)c1ccc(NC(=O)C2CCN(S(=O)(=O)c3cccc4cccnc34)CC2)cc1", "Potency": "inconclusive [inhibitor, single point]"}, {"smiles": "c1ccc2c(NC3C4CC5CC(C4)CC3C5)nc(N3CCOCC3)nc2c1", "note": "(configuration not stated)", "activity change, negative = inhibition": "inconclusive: 24.5% [activator]"}, {"smiles": "COc1ccc(S(=O)(=O)N/N=C\\c2ccc3c(c2)OCO3)cc1", "Potency": "inconclusive [inhibitor, single point]"}, {"smiles": "CCOC(=O)c1cc(-c2ccccc2)sc1NC(=O)c1ccc(OC)cc1", "Potency": "inconclusive [inhibitor, full curve]"}, {"smiles": "Cc1ccc(C(=O)O)cc1N1C(=O)CCCC1=O", "Potency": "inconclusive [inhibitor, full curve, poor fit]"}, {"smiles": "CCOc1ccc(OCCCCOc2ccccc2C(C)=O)cc1", "activity change, negative = inhibition": "inconclusive: -17.2% [inhibitor]"}, {"smiles": "Cc1ccc(S(=O)(=O)NCc2ccncc2)c(C)c1C", "activity change, negative = inhibition": "inconclusive: 13.7% [activator]"}, {"smiles": "O=S(=O)(c1ccccc1)N1CCC(O)(CSc2ccc(F)cc2)CC1", "Potency": "inconclusive [inhibitor, single point]"}, {"smiles": "CCOC(=O)N1CCN(C(=O)c2ccc(N3C(=O)c4ccccc4C3=O)cc2)CC1", "Potency": "inconclusive [inhibitor, single point]"}, {"smiles": "CCOC(=O)c1ccc(NC(=O)c2c(NC(=O)CCC(=O)O)sc3c2CCCCC3)cc1", "Potency": "inconclusive [inhibitor, partial curve]"}, {"smiles": "O=c1cc(-c2ccc(O)cc2)oc2c(O)c(O)c(O)c(O)c12", "Potency": "inactive"}, {"smiles": "Cc1csc(NC(=O)c2nn(C)c(C)c2[N+](=O)[O-])n1", "Potency": "inconclusive [inhibitor, full curve, poor fit]"}, {"smiles": "Cc1noc(C)c1S(=O)(=O)N(CC(=O)N1CCCC1)c1ccc(C(C)C)cc1", "activity change, negative = inhibition": "inconclusive: -16% [inhibitor]"}, {"smiles": "COC(=O)Cn1c(=O)n(CCc2ccccc2)c(=O)c2c3c(sc21)CCCC3", "activity change, negative = inhibition": "inconclusive: -19.9% [inhibitor]"}, {"smiles": "CCCCNc1nnc(SCC(=O)N2CCN(S(=O)(=O)c3ccc4ccccc4c3)CC2)s1", "activity change, negative = inhibition": "inconclusive: -15.5% [inhibitor]"}, {"smiles": "CC1=C(C(=O)NC2CCCCC2C)C2(CCC(C)CC2)OC1=O", "note": "(configuration not stated)", "Potency": "inconclusive [inhibitor, single point]"}, {"smiles": "O=C(c1ccc2c(c1)OCO2)N1CCOCC1", "activity change, negative = inhibition": "inconclusive: -15.1% [inhibitor]"}, {"smiles": "CCN1CNC(=S)N(c2ccccc2C)C1", "activity change, negative = inhibition": "inconclusive: -15.3% [inhibitor]"}, {"smiles": "CCOc1ccc(NC(=S)/C(=C(\\[O-])c2ccc(C)c([N+](=O)[O-])c2)[n+]2ccccc2)cc1", "Potency": "inconclusive [inhibitor, partial curve, poor fit]"}, {"smiles": "CN(C)C(=O)COC(=O)c1ccccc1Sc1ccccc1C#N", "Potency": "inconclusive [inhibitor, single point]"}, {"smiles": "CCN(C(=O)c1c(C)cc(=O)oc1C)c1ccc2c(c1)OCO2", "Potency": "inactive"}, {"smiles": "CCOn1c(=O)c(-c2cccc3ccccc23)[n+]([O-])c2ccccc21", "Potency": "inconclusive [inhibitor, single point]"}, {"smiles": "O=S1(=O)CCN=C2SC3=C(CCCC3)N21", "Potency": "inconclusive [inhibitor, partial curve, poor fit]"}, {"smiles": "C=CCc1ccccc1OCC(=O)N/N=C/c1ccccc1OCC", "Potency": "inconclusive [inhibitor, partial curve]"}, {"smiles": "CC(C)(C)CC(=O)Nc1cccc(-c2cn3cccnc3n2)c1", "Potency": "inconclusive [activator, partial curve]"}, {"smiles": "CCOC(=O)CC(=O)CSC1=C(C#N)C(c2ccccc2OC)CC(=O)N1", "note": "(configuration not stated)", "Potency": "inconclusive [inhibitor, single point]"}, {"smiles": "COc1ccc(NC(=S)Nc2ccc(C)c(S(=O)(=O)N3CCCCC3)c2)cc1", "Potency": "inconclusive [inhibitor, single point]"}]}]}
